Reference: PubChem BioAssay AID686970 (National Center for Advancing Translational Sciences (NCATS), 2013)
The whole screen tested about 360,000 compounds, of which about 6,000 (1.7%) were called active. Inconclusive results, whose numbers are uncertain, are shown with a selection of clear calls. Calls come from the whole dose curve; as a rule, active = well fitted cell-killing curve with a large enough effect; inconclusive = small, poorly fitted or top-dose-only effect, or effect the other way; inactive = flat fitted curve, though single readings scatter. Potencies of inconclusive entries are left out as doubtful fits.

test: qHTS for induction of synthetic lethality in tumor cells producing 2HG: qHTS for the HT-1080-NT fibrosarcoma cell line; settings: HT-1080-NT fibrosarcoma viability, CellTiter-Glo ATP luminescence, 48 h; activity, negative = less viability: at 46.1 µM (top of the series) unless noted;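 note: NT is the 2HG producing partner of a matched IDH1 knockdown line; nearly all actives have a fitted effect of over 55% in size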;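 for activity, negative = less viability: 0% = DMSO-treated cells and -100% = media-only wells without cells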
In short: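 Luminescent CellTiter-Glo readout after 48 hours of compound exposure at 37 degrees C defined viability of HT-1080-NT cells. Activity was normalized to DMSO wells and cell-free media wells; concentration-response curves were fitted and assigned curve classes.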
Potency is the fitted concentration of half-maximal effect; tags give direction and shape of the fitted curve.

SMILES | Potency | activity, negative = less viability
CCc1nc(N2CCN(C(=O)c3ccccc3)CC2)c2c3c(sc2n1)CCCC3 | inconclusive [cytotoxic, single point] | –
Cc1cc(-c2ccco2)n(-c2ccccc2)n1 | inconclusive [cytotoxic, full curve, poor fit] | –
CC(C(=O)Nc1ccc(F)c(F)c1F)N(C)CCOc1ccccc1 (centres undefined) | inconclusive [rising, partial curve] | –
COc1cccc(C(=O)NCCS(=O)(=O)N2CCCC(C)C2)c1 (centres undefined) | – | inactive: 2.95%
Cc1ccc(S(=O)(=O)N2CCN(CCc3ccccc3)CC2)c(C)c1 | inconclusive [cytotoxic, partial curve] | –
CC1=NN(c2ccccc2)C(=O)/C1=C\c1cc(C)n(-c2ccccc2)c1C | – | inactive: 9.74%
CC(C)N1CCC(N2CCN(Cc3ccc(-c4ccc(Cl)cc4)o3)CC2CCO)CC1 (centres undefined) | active: 16.4 µM | –
CCOc1cc(Br)ccc1S(=O)(=O)N1CC(C)OC(C)C1 (centres undefined) | inconclusive [cytotoxic, partial curve] | –
Cc1cccc(NC(=S)N(CCN(C)C)Cc2cc3cc(C)ccc3[nH]c2=O)c1 | active: 16.4 µM | –
C/C=C/c1cccc(-c2nc(C(=O)NC3CCCC3)cc3c2[C@@H](CCO)N(S(=O)C(C)(C)C)C3)c1 (some centres undefined) | – | inactive: -12.8%
CC1CC2CCCC(O)=C2C(=O)O1 (centres undefined) | – | inactive: -3.49%
CCc1nc2c(OCCC3CCCCC3)cccn2c1N(C)C(=O)c1ccc(OC)cc1 | inconclusive [cytotoxic, single point] | –
COc1ccc(-c2cc3nc(CCl)[nH]c(=O)c3s2)cc1 | active: 16.4 µM | –
CC(=O)N(O)c1ccc(C=Cc2ccccc2)cc1 | inconclusive [cytotoxic, single point] | –
Cc1sc(-n2c(C)cc(/C=C3\SC(=S)NC3=O)c2C)c(C#N)c1C | active: 12.6 µM | –
COC1=C(Nc2ccc(O)cc2)C(=O)c2ccccc2C1=O | active: 10.3 µM | –
COc1ccc(NC(=O)CCN2C(=O)[C@@H]3[C@H](C2=O)[C@H]2C=C[C@@H]3C2)cc1 | active: 18.4 µM | –
CNC(C)C(=O)NC(C(=O)N1CCCC1C(=O)NNc1ccccc1)C(C)C (centres undefined) | active: 1.3 µM | –
Cc1cc(Nc2ccc(N3CCOCC3)cc2)c2cccc(C)c2n1 | inconclusive [cytotoxic, partial curve] | –
CN1C(=O)C2(N=c3ccccc3=N2)c2ccccc21 | inconclusive [cytotoxic, full curve, poor fit] | –
NS(=O)(=O)c1ccc(N2CCN(CCOc3ccc(Cl)cc3)CC2)nc1 | inconclusive [cytotoxic, partial curve, poor fit] | –
CCc1ccc(N2C(=O)CN(Cc3cc(OC)c(OC)c(OC)c3)C2=S)cc1 | – | inactive: -13.5%
Cc1ccc2c(c1)C(O)(c1c(C)[nH]c3ccccc13)C(=O)N2 (centres undefined) | inconclusive [cytotoxic, single point] | –

SMILES | Potency | activity, negative = less viability
CCc1ccc(S(=O)(=O)/N=C2\C=C(Nc3ccc(C(=O)O)cc3)C(=O)c3ccccc32)cc1 | active: 16.4 µM | –
Cc1ccc(OCC(O)CN2CCN(Cc3ccc4c(c3)OCO4)CC2)c(C)c1 (centres undefined) | inconclusive [cytotoxic, full curve, poor fit] | –
CC(=O)Nc1cc(-c2cccc(C(=O)NCCO)c2)cn2c(-c3ccc(F)cc3)cnc12 | inconclusive [cytotoxic, partial curve] | –
Cc1ccsc1/C=C(\C#N)C(=O)NCc1ccco1 | inconclusive [cytotoxic, single point] | –
CCNC(=S)NNC(=O)c1cc(-c2ccc(OCC)cc2)nc2ccccc12 | active: 3.55 µM | –
O=C(Nc1ccc(Cl)c(C(F)(F)F)c1)NC1CC2CCCC(C1)N2C1CC1 (centres undefined) | inconclusive [cytotoxic, single point] | –
CCCCn1c(O)c2n(c1=O)Cc1ccccc1N=C2c1ccc(C)cc1 | – | inactive: -0.315%
CC1(C)NC(=O)N(CCC(=O)Nc2cc(C(F)(F)F)ccc2Cl)C1=O | – | inactive: -4.78%
CC(CCc1ccc(O)cc1)NCCc1ccc(O)c(O)c1 (centres undefined) | inconclusive [cytotoxic, single point] | –
CC(C)C1C(C#N)=C(N)Oc2n[nH]c(-c3ccc4ccccc4c3)c21 (centres undefined) | inconclusive [cytotoxic, full curve] | –
CCCCC1CN2CCc3c([nH]c4ccccc34)C2(C)C1 (centres undefined) | inconclusive [cytotoxic, partial curve] | –
CC(=O)Nc1cccc(-c2ccnc3c2CC(C(=O)NCCC(F)(F)F)O3)c1 (centres undefined) | inconclusive [cytotoxic, single point] | –
CCCS(=O)(=O)NC(=O)C1(C)CCN(C(=O)c2ccc(SC(F)(F)F)cc2)C1 (centres undefined) | – | inactive: 23.3%
CN1CCN(c2ccc(-c3cc(NC=O)c4ncc(-c5ccccc5)n4c3)cc2)CC1 | inconclusive [cytotoxic, single point] | –
Nc1ccc(N=Nc2ccccc2O)c(N)c1 | inconclusive [cytotoxic, full curve] | –
CCC(=O)c1ccc(OCC(O)CNC2CCCC2)cc1 (centres undefined) | – | inactive: -10.4%
COc1ccc(Nc2ccc(Cl)nn2)cc1 | inconclusive [rising, single point] | –
CCc1cc(-c2n[nH]c(=S)n2-c2ccccc2C)cs1 | active: 11.2 µM | –
CC(=O)C1=CCC(c2cccc(Cl)c2)N(S(=O)(=O)c2ccc(C)cc2)C1 (centres undefined) | inconclusive [cytotoxic, partial curve] | –
COC(=O)c1ccc2c(c1)C(C)(C)C(/C=C/c1ccccc1O)=[N+]2C | active: 4.47 µM | –
O=C(NCC(=O)N1CCN(c2ccccc2O)CC1)c1ccc(Br)o1 | inconclusive [cytotoxic, partial curve] | –
Cc1nc(-n2[nH]c3c(c2=O)CCCC3)[nH]c(=O)c1Cc1ccccc1 | inconclusive [cytotoxic, partial curve] | –
CCOC(=O)c1ccc(-n2[nH]c(-c3ccccc3)cc2=O)cc1 | inconclusive [cytotoxic, single point] | –

SMILES | Potency | activity, negative = less viability
COc1ccccc1NC1=NC(c2ccc(Cl)cc2)N=C(N)N1 (centres undefined) | active: 10 µM | –
COC1=C/C(=C/c2c(O)c(C#N)c3ccccn23)C=CC1=O | – | inactive: 0%
Cc1cccc2nc(-c3cccnc3)c(NCCC(C)C)n12 | inconclusive [cytotoxic, single point] | –
CCCCN1CC(N2CCN(Cc3cccc(C)c3)CC2)CS1(=O)=O (centres undefined) | – | inactive: 13.1%
O=C(c1ccc(-n2cncn2)c([N+](=O)[O-])c1)N1CCN(S(=O)(=O)c2ccc(F)c(F)c2)CC1 | – | inactive: -8.57%
Cc1cccc2c(C(=O)N3CCN(C(=O)c4ccco4)CC3)cc(-c3cccc(Br)c3)nc12 | inconclusive [cytotoxic, partial curve] | –
OC(CNCC(c1ccc(Cl)cc1Cl)c1c[nH]c2ccccc12)c1ccccc1 (centres undefined) | active: 20.6 µM | –
Cc1cccc(NS(=O)(=O)c2ccc(C3CCCCC3)cc2)c1 | inconclusive [cytotoxic, partial curve] | –
O=C(CC1(O)C(=O)N(C/C=C/c2ccccc2)c2ccccc21)c1ccccn1 (centres undefined) | inconclusive [cytotoxic, single point] | –
O=C(CCCOc1ccc(Br)cc1)Nc1ccc(S(=O)(=O)N2CCOCC2)cc1 | inconclusive [cytotoxic, single point] | –
C#CCOCCOCCOCCNc1nc(N2CCN(C(=O)CCCCCCCCCCNC(=O)Cn3cc(CCCCCN)nn3)CC2)nc(N2CCN(C(=O)CCCCCCCCCCNC(=O)Cn3cc(C[C@@H](C)O)nn3)CC2)n1 | inconclusive [cytotoxic, single point] | –
CCCc1cc(C(=O)N2CCN(c3ccc(C(F)(F)F)cn3)CC2)sc1C | inconclusive [cytotoxic, single point] | –
COc1cc(-c2coc3c(C(=O)NCc4ccc(N(C)C)cc4)cccc23)ccc1O | inconclusive [cytotoxic, single point] | –
CC1(C)CC(=O)C(N=Nc2c(F)cccc2F)=C(O)C1 | inconclusive [rising, single point] | –
c1ccc(-c2csc(NNC3=NCCCCC3)n2)cc1 | inconclusive [cytotoxic, single point] | –
CS(=O)(=O)c1ccc(Cl)c(NC(=O)CSc2nc3ccccc3c(=O)n2CCCN2CCOCC2)c1 | inconclusive [cytotoxic, partial curve] | –
CN(C)c1ccc(/C=C(/C(=O)c2ccc(Cl)cc2Cl)n2cncn2)cc1 | inconclusive [cytotoxic, single point] | –
FC(F)(F)c1cccc(-c2nc3ccccc3n2C(c2ccccc2)c2nc3ccccc3[nH]2)c1 (centres undefined) | inconclusive [cytotoxic, single point] | –
COc1cc2c(cc1NC(=O)CCC(=O)O)oc1ccccc12 | – | inactive: 8.06%
Cc1cccc(N2CCN(S(=O)(=O)c3ccc4c(c3)CC(=O)N4C)CC2)c1C | inconclusive [cytotoxic, single point] | –
COc1cc2c(cc1OC)C(c1ccc(-c3ccc(Cl)cc3Cl)o1)=NCC2 | inconclusive [cytotoxic, single point] | –
Cc1ccc(-c2cc3nc(-c4ccc(Br)cc4)cc(N)n3n2)cc1 | inconclusive [cytotoxic, single point] | –
COc1ccc2oc(=O)c(C(=O)Oc3ccc(NC(C)=O)cc3)cc2c1 | – | inactive: -0.184%
